Assay results taken from the supplement of paper PMC9446081.
The campaign covered roughly 39,000 compounds. About 220 (0.56%) showed activity. The list shows a part of the results.

system: Escherichia coli K-12 BW25113; test: relative growth (OD600 normalised to plate interquartile mean) (fraction); higher = less growth inhibition, active = 0.2 or less; conditions: 50 µM; LB; incubation time: overnight (16-24 h)
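Note: static incubation at 37 °C against the wild-type strain, values averaged over two biological replicates.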

SMILES | relative growth
COc1cccn(CC(=O)N2CCO[C@@H](CCN)C2)c1=O | inactive: 1.01
COc1ccc(NC(=O)Nc2ccc3c(c2)C(=O)N([C@H](C)CO)C[C@H](C)[C@@H](CN(C)Cc2ccc(C(F)(F)F)cc2)OCCCC[C@@H](C)O3)cc1 | inactive: 1.06
C[C@H]1CN([C@@H](C)CO)C(=O)c2cc(NC(=O)C3CC3)ccc2O[C@@H]1CN(C)S(=O)(=O)c1cn(C)cn1 | inactive: 0.941
CC(=O)NCCCC[C@@H]1NC(=O)[C@@H]2C[C@H](C(=O)NCCCCCCN)[C@H](c3cccc(OCCO)c3)N2C1=O | inactive: 1
C[C@@H](O)[C@H](N)C(=O)N[C@@H](CCCCN)C(=O)N1CCC[C@H]1C(=O)N[C@@H](CCCNC(=N)N)C(=O)O | inactive: 1.03
C[C@H](CO)N1C[C@H](C)[C@H](CN(C)S(=O)(=O)c2cn(C)cn2)Oc2cc(C#Cc3ccccc3)ccc2S1(=O)=O | inactive: 0.994
C[C@@H]1CCCCO[C@@H](CN(C)C(=O)c2ccccc2)[C@H](C)CN([C@@H](C)CO)C(=O)c2cc(NC(=O)CCC(F)(F)F)ccc2O1 | inactive: 0.886
COc1ccc(S(=O)(=O)Nc2ccc3c(c2)C(=O)N([C@@H](C)CO)C[C@@H](C)[C@H](CN(C)C(=O)c2ccccc2)OCCCC[C@@H](C)O3)cc1 | inactive: 1.02
C[C@H](O)CC1=C[C@H](O)[C@@H](C)OC1=O | inactive: 1.01
C[C@@H]1CN([C@@H](C)CO)S(=O)(=O)c2ccc(C#CCN(C)C)cc2O[C@H]1CN(C)Cc1ccc2c(c1)OCO2 | inactive: 1.01
C=CCC[C@H](Cc1ccc(F)cc1)C(=O)OC[C@@H](NC(=O)[C@@H](CC=C)CC(=O)N(CCO)Cc1ccccc1)C(C)(C)C | inactive: 1.05
CC(C)NC(=O)N(C)C[C@H]1OCCCC[C@@H](C)Oc2ccc(NC(=O)Nc3ccc(F)cc3)cc2C(=O)N([C@H](C)CO)C[C@@H]1C | inactive: 0.98
COCC(=O)N(C)C[C@@H]1Oc2cc(C#C[C@H](C)O)ccc2S(=O)(=O)N([C@@H](C)CO)C[C@H]1C | inactive: 0.992
C[C@H]1CCCCO[C@@H](CN(C)Cc2ccc(C(F)(F)F)cc2)[C@@H](C)CN([C@@H](C)CO)C(=O)c2cc(NC(=O)NC3CCCCC3)ccc2O1 | inactive: 1
C[C@@H]1CN([C@@H](C)CO)C(=O)CCCn2nncc2CO[C@H]1CN(C)S(=O)(=O)c1ccc2c(c1)OCCCO2 | inactive: 0.985
NNC(=O)C1[C@H]2CCCC[C@@H]12 (some centres undefined) | inactive: 1.02
C[C@@H]1CN([C@H](C)CO)C(=O)c2cc(NC(=O)C3CCCCC3)ccc2O[C@@H](C)CCCCO[C@@H]1CN(C)C(=O)Nc1cccc2ccccc12 | inactive: 0.991
C[C@@H]1CN([C@@H](C)CO)C(=O)c2cccc(NS(=O)(=O)c3ccc(F)cc3)c2O[C@H]1CN(C)S(=O)(=O)c1ccc(F)cc1 | inactive: 1
C[C@H](CO)N1C[C@H](C)[C@@H](CN(C)C(=O)Nc2ccc3c(c2)OCO3)Oc2ccc(NC(=O)C3CC3)cc2CC1=O | inactive: 1
COCC#Cc1ccc([C@@H]2[C@H](CO)N3C(=O)CN(C(=O)C4CCOCC4)C[C@@H]23)cc1 | inactive: 0.959

SMILES | relative growth
CC(C)NC(=O)N(C)C[C@H]1OCCCC[C@H](C)Oc2ccc(NC(=O)Nc3cccc4ccccc34)cc2C(=O)N([C@H](C)CO)C[C@@H]1C | inactive: 1.05
Cn1cnc(S(=O)(=O)N[C@@H]2CC[C@H](CC(=O)Nc3ccccc3)O[C@@H]2CO)c1 | inactive: 0.983
C[C@H](CO)N1C[C@H](C)[C@@H](CN(C)S(=O)(=O)c2cn(C)cn2)Oc2cc(Br)ccc2S1(=O)=O | inactive: 1.02
COc1ccc(S(=O)(=O)Nc2ccc3c(c2)C(=O)N([C@@H](C)CO)C[C@H](C)[C@H](CN(C)Cc2ccncc2)O3)cc1 | inactive: 0.998
C[C@H]1CN([C@@H](C)CO)C(=O)c2cc(NC(=O)CCN3CCOCC3)ccc2O[C@@H]1CN(C)Cc1ccccc1 | inactive: 1.01
CCS(=O)(=O)N1C[C@]2(C1)CN([C@H](CO)c1[nH]c3cc(ccc3c12)OC)S(=O)(=O)c1cn(cn1)C | inactive: 1.03
CCC=CCC=CCC=CCC=CCC=CCC=CCCC(=O)O | inactive: 1.06
C[C@@H]1CN([C@H](C)CO)C(=O)c2cc(NC(=O)NC3CCCCC3)ccc2O[C@@H](C)CCCCO[C@@H]1CN(C)Cc1ccccc1 | inactive: 0.997
O=C(CN1CCOCC1)NCC[C@H]1CC[C@H](NC(=O)Nc2ccccc2)[C@H](CO)O1 | inactive: 1
C[C@H]1CN([C@@H](C)CO)S(=O)(=O)c2ccc(Br)cc2O[C@@H]1CN(C)C(=O)Cc1ccccc1 | inactive: 1.02
COc1ccc(NC(=O)Nc2ccc3c(c2)CC(=O)N([C@H](C)CO)C[C@@H](C)[C@H](CN(C)Cc2ccc(-c4ccccc4)cc2)O3)cc1 | inactive: 1
C[C@H]1CN([C@@H](C)CO)S(=O)(=O)c2ccc(C#Cc3ccncc3)cc2O[C@H]1CN(C)C(=O)Nc1ccc2c(c1)OCO2 | inactive: 1.02
C[C@@H]1CCCCO[C@@H](CN(C)C(=O)CCCN(C)C)[C@H](C)CN([C@H](C)CO)C(=O)c2cc(NC(=O)Nc3ccc(F)cc3)ccc2O1 | inactive: 1.01
CC1=C2C(O)C(=O)OC3CC4C(C)(C)C(=O)C=CC4(C)C(CC1)C23C (centres undefined) | inactive: 1.01
CC(=O)NCCCC[C@@H]1NC(=O)[C@H]2C[C@@H](C(=O)O)[C@@H](c3ccc(O)cc3)N2C1=O | inactive: 1.03
COc1cc(Nc2nc3ccccc3nc2NS(=O)(=O)c2ccc(NC(=O)c3ccc(C)c(OC)c3)cc2)cc(OC)c1 | inactive: 1.05
Cc1ccc(-c2cnc3c(c2)C(=O)N([C@@H](C)CO)C[C@H](C)[C@H](CN(C)C(=O)Cc2cccnc2)O3)cc1 | inactive: 0.981
CC(=O)n1cc([C@H]2C=C(C(=O)NCc3ccccc3)O[C@@H](OCc3ccc(CO)cc3)C2)c2ccccc21 | inactive: 1.02
C[C@@H]1CN([C@@H](C)CO)C(=O)Cc2cc(NC(=O)Nc3ccc(C(F)(F)F)cc3)ccc2O[C@H]1CN(C)Cc1ccc(-c2ccccc2)cc1 | inactive: 1.02
